Assay results reported in the supplement of paper PMC4967469.
Lines with a small IC50 respond at low doses; where the fit passes the top or lowest dose, that dose stands as a limit. AUC sums up the same curve from the lowest dose to the 256-fold higher top dose; it is 1 without any effect and falls as sensitivity rises. For part of these data: Any top dose called inferred was calculated from the reported fits. For part of these data: Drugs with an entry number were screened twice under separate entries, and the two screens often disagree.

Tests used:
Assay in all cases: Viability of human cancer cell lines after 72 h of drug (GDSC screen)
[1] = compound: O=S(=O)(O)c1ccc2cc(N=Nc3cc(S(=O)(=O)O)c4cccnc4c3O)ccc2c1 [NSC-87877]; conditions: top dose 16 µM; top dose inferred
Description: (§1)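 Human cancer cell lines in 384-well plates, medium with 10% serum, drug for 72 h over a 256-fold dose range (nine 2-fold or five 4-fold steps up to the top dose). Adherent lines were fixed and stained with the nucleic acid dye Syto60, suspension lines read with resazurin; signal relative to control wells, capped at 0 and 100%. One two-parameter sigmoid per drug and line, fitted in a mixed model over all curves with the slope shared within a line.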

[2] = compound: CC/C(=C(\c1ccccc1)c1ccc(OCCN(C)C)cc1)c1ccccc1 [Tamoxifen]; conditions: top dose 5 µM
Description: as §1

[3] = compound: CCCC(=O)OCc1ccc(OC(=O)/C=C(C)/C=C/C=C(C)/C=C/C2=C(C)CCCC2(C)C)cc1 [VNLG/124]; conditions: top dose 5.12 µM; top dose inferred
Description: as §1

[4] = compound: O=C(Nc1cccc(Nc2ncc(Br)c(NCCc3cnc[nH]3)n2)c1)N1CCCC1 [BX-912]; conditions: top dose 10.24 µM; top dose inferred
Description: as §1

[5] = compound: Cc1c(N)nc([C@H](CC(N)=O)NC[C@H](N)C(N)=O)nc1C(=O)N[C@H](C(=O)N[C@H](C)[C@@H](O)[C@H](C)C(=O)N[C@H](C(=O)NCCc1nc(-c2nc(C(=O)NCCC[S+](C)C)cs2)cs1)[C@@H](C)O)[C@@H](OC1OC(CO)C(O)C(O)C1OC1OC(CO)C(O)C(OC(N)=O)C1O)c1cnc[nH]1 [Bleomycin]
Description: as §1

[6] = compound: O=C(Nc1ccc(OC(F)(F)F)cc1)c1sccc1NCc1ccnc2ccccc12 [OSI-930]; conditions: top dose 10.24 µM
Description: as §1

[7] = compound: O=C(/C=C/c1ccc(CN(CCO)CCc2c[nH]c3ccccc23)cc1)NO [LAQ824]; conditions: top dose 1.024 µM; top dose inferred
Description: as §1

[8] = compound: CN(NC(=O)CC(=O)NN(C)C(=S)c1ccccc1)C(=S)c1ccccc1 [Elesclomol]; conditions: top dose 0.2 µM; top dose inferred
Description: as §1

[9] = compound: Cc1ccc(NC(=O)c2ccc(CN3CCN(C)CC3)cc2)cc1Nc1nc(-c2cccnc2)cs1 [Masitinib]; conditions: top dose 20 µM
Description: as §1

[10] = top dose 50 µM, screen: GDSC drug entry 1378, top dose inferred
[11] = top dose 64 µM, screen: GDSC drug entry 190

Cell Line | AUC [1] | IC50 [1] | AUC [2] | IC50 [2] | AUC [3] | IC50 [3] | AUC [4] | IC50 [4] | AUC [5, 10] | IC50 [5, 10] | AUC [5, 11] | IC50 [5, 11] | AUC [6] | IC50 [6] | AUC [7] | IC50 [7] | AUC [8] | IC50 [8] | AUC [9] | IC50 [9]
NCI-H1048 (small cell lung carcinoma, adherent) | 0.985 | > 16 µM | 0.989 | > 5 µM | 0.988 | > 5.12 µM | 0.7 | 2.18 µM | 0.478 | 2.73 µM | 0.344 | 1.55 µM | 0.948 | > 10.2 µM | 0.733 | 0.272 µM | 0.537 | 0.0156 µM | 0.879 | 17 µM
NCI-H1092 (small cell lung carcinoma, suspension) | 0.987 | > 16 µM | 0.989 | > 5 µM | 0.988 | > 5.12 µM | 0.901 | > 10.2 µM | 0.968 | > 50 µM | 0.944 | > 64 µM | 0.99 | > 10.2 µM | 0.538 | 0.0811 µM | 0.896 | > 0.2 µM | 0.956 | > 20 µM
NCI-H1417 (small cell lung carcinoma, suspension) | 0.98 | > 16 µM | 0.964 | > 5 µM | 0.966 | > 5.12 µM | 0.676 | 2.19 µM | 0.938 | > 50 µM | 0.797 | 36.8 µM | 0.909 | > 10.2 µM | 0.241 | 0.00969 µM | 0.469 | 0.0101 µM | 0.871 | > 20 µM
NCI-H1435 (lung adenocarcinoma, semi-adherent) | 0.993 | > 16 µM | 0.992 | > 5 µM | 0.992 | > 5.12 µM | 0.992 | > 10.2 µM | 0.958 | > 50 µM | 0.445 | 2.88 µM | 0.991 | > 10.2 µM | 0.597 | 0.114 µM | 0.972 | > 0.2 µM | 0.971 | > 20 µM
NCI-H1581 (large cell lung carcinoma, semi-adherent) | 0.986 | > 16 µM | 0.987 | > 5 µM | 0.987 | > 5.12 µM | 0.831 | 5.8 µM | 0.714 | 11.9 µM | 0.896 | > 64 µM | 0.931 | > 10.2 µM | 0.563 | 0.0939 µM | 0.625 | 0.0268 µM | 0.847 | 13 µM
NCI-H1666 (lung adenocarcinoma, semi-adherent) | 0.984 | > 16 µM | 0.944 | > 5 µM | 0.987 | > 5.12 µM | 0.964 | > 10.2 µM | 0.76 | 19.2 µM | 0.919 | > 64 µM | 0.973 | > 10.2 µM | 0.736 | 0.325 µM | 0.937 | > 0.2 µM | 0.947 | > 20 µM
